Test results published in PubChem BioAssay AID624296 (National Center for Advancing Translational Sciences (NCATS), 2012).
Hit rate of the full screen: of about 350,000 compounds, about 9,900 (2.8%) were called active. The shares of active, inactive and inconclusive entries below differ from those in the screen. Calls come from the whole dose curve; as a rule, active = well fitted activation curve with a large enough effect; inconclusive = small, poorly fitted or top-dose-only effect; inactive = no such curve, though single readings can be large or run the other way. No potency is given beside an inconclusive call; the fits are too rough.

test: A quantitative high throughput screen for small molecules that induce DNA re-replication in MCF 10a normal breast cells.; note: nearly all actives have a fitted effect of over 50% in size; for activity, positive = re-replication: % of control where 0% means no effect; conditions: MCF 10A DNA re-replication, Hoechst nuclear intensity, 48 h; activity, positive = re-replication: at 46.1 µM (top of the series)
Potency is the fitted concentration of half-maximal effect; tags give direction and shape of the fitted curve.

| Compound | Potency | activity, positive = re-replication |
| --- | --- | --- |
| COc1cccc(-n2c(SCc3cc(=O)oc4cc(O)c(O)cc34)nc3ccccc3c2=O)c1 | inconclusive [activator, single point] |  |
| C=CCn1c(=NC(=O)c2ccccc2[N+](=O)[O-])sc2cc(S(C)(=O)=O)ccc21 | inconclusive [activator, partial curve, poor fit] |  |
| CC(=NNc1nc2ccccc2o1)c1cc2ccccc2cn1 | inconclusive [activator, partial curve, poor fit] |  |
| O=c1[nH]ccc2c(O)cccc12 | inconclusive [activator, full curve, poor fit] |  |
| COc1ccc(Cn2nnnc2C(c2ccccc2)N2CCN(C3CCCC3)CC2)cc1 (stereo unspecified) | inactive |  |
| CCOC(=O)Cn1c(=O)c2c(nc(Br)n2Cc2ccc(Cl)cc2)n(C)c1=O | inconclusive [activator, partial curve, poor fit] |  |
| CCOc1cc(/C=C(/C#N)c2ccc(Cl)cc2)cc(Cl)c1OCC(=O)O | inconclusive [activator, full curve, poor fit] |  |
| CC(C)(C)c1ccc(-n2nc(C#N)c(Cl)cc2=O)cc1 | active: 2.91 µM |  |
| CC(OC(=O)C1=NNC(=O)CC1)C(=O)Nc1ncc(Cl)cc1Cl (stereo unspecified) | inconclusive [activator, single point] |  |
| C=C(NCc1ccccc1)c1ccccc1O | inactive |  |
| O=c1c2c(nc3c(-c4cccc(Br)c4)c[nH]n13)CCCC2 |  | inactive: -68.5% [at 0.0737 µM] |
| O=C(COc1cccnc1[N+](=O)[O-])Nc1cccc2ccccc12 | inactive |  |
| CCOC(=O)C1(Cc2ccccc2C)CCCN(S(C)(=O)=O)C1 (stereo unspecified) | inconclusive [activator, single point] |  |
| Cc1ccc(C)c(C(=O)CSc2n[nH]c(C)n2)c1 | inconclusive [activator, single point] |  |
| COc1ccc(C)cc1S(=O)(=O)N1CCCCCC1 | inconclusive [activator, partial curve, poor fit] |  |
| COCCCNc1nc2ccccc2nc1NS(=O)(=O)c1ccccc1 | inactive |  |
| COc1cc(C(CC(=O)N2CCCC2)c2c(OC)cc(OC)c3ccc(=O)oc23)cc(OC)c1OC (stereo unspecified) | inactive |  |
| COc1ccc(C(=O)N2CCN(S(=O)(=O)c3ccc(C)cc3)CC2)cc1S(=O)(=O)N1CCOCC1 | inactive |  |
| O=C1C(Cl)=C(NC2CCCCC2)C(=O)N1Cc1ccccc1 | inconclusive [activator, single point] |  |
| Oc1ccc(Cl)cc1CNc1cccc2cccnc12 | inconclusive [activator, partial curve, poor fit] |  |
| COc1cccc(C2NC(=S)NC(C)=C2C(=O)c2ccccc2)c1OC (stereo unspecified) | inconclusive [activator, partial curve, poor fit] |  |

| Compound | Potency | activity, positive = re-replication |
| --- | --- | --- |
| CCOc1cc(/C=C2/SC(=Nc3ccccc3)N(Cc3cccnc3)C2=O)ccc1OCC#N | inconclusive [activator, partial curve, poor fit] |  |
| CC1=NN(c2ccc(C(=O)OC(C)C)cc2)C(=O)/C1=C\C=C\c1ccco1 | inconclusive [activator, single point] |  |
| Cc1ccc(Sc2cc(C(=O)NCCN(C)C)c3ccccc3n2)cc1 | inactive |  |
| COC(=O)c1c(NC(=O)COC(=O)c2ccc(Cl)cc2[N+](=O)[O-])sc2c1CCCCC2 | inconclusive [activator, partial curve, poor fit] |  |
| O=C(O)c1ccccc1C(=O)Nc1cccc([N+](=O)[O-])c1 | inactive |  |
| CCOc1ccc2nc(SC3CC(=O)N(c4cccc(OC)c4)C3=O)sc2c1 (stereo unspecified) | inconclusive [activator, single point] |  |
| C/C=C/C=C/C(=O)[C@@H]1[C@@H]([C@]2(C)OC(=O)C(C)=C2O)[C@H]2/C(=C(O)/C=C/C=C/C)C(=O)[C@]1(C)C(=O)C2(C)O (stereo partly specified) | inconclusive [activator, single point] |  |
| COc1cccc(NC(=O)CC2C(=O)NC3CCCCC3N2C(=O)c2ccc(F)cc2)c1 (stereo unspecified) | inconclusive [activator, single point] |  |
| Cc1cc(C)c(C)c(S(=O)(=O)N2CCC(C(=O)NCC(c3ccccc3)N(C)C)CC2)c1C (stereo unspecified) | inconclusive [activator, single point] |  |
| Cc1ccc(S(=O)(=O)N(C)C[C@@H]2Oc3ccc(NC(=O)Cn4cnnn4)cc3C(=O)N([C@@H](C)CO)C[C@H]2C)cc1 | inconclusive [activator, partial curve, poor fit] |  |
| COC(=O)C1CCN(C(=O)C2CC(=O)N(c3ccc(C)c(Cl)c3)C2)CC1 (stereo unspecified) | inactive |  |
| O=C(N/N=C/c1ccc(Cl)cc1)C1CC12CCC2 (stereo unspecified) | inconclusive [activator, single point] |  |
| O=C(COC(=O)/C=C/c1ccc([N+](=O)[O-])cc1)NC(=O)NC1CCCCC1 | inconclusive [activator, single point] |  |
| CCN(CC)CCOCCOC(=O)C1(c2ccccc2)CCCC1 | inconclusive [activator, full curve] |  |
| CCNc1oc(-c2cccc3ccccc23)nc1C#N | inconclusive [activator, partial curve, poor fit] |  |
| CCOc1ccc(CN(C)CC(O)COC(c2ccc(OC)cc2)c2ccc(OC)cc2)cc1 (stereo unspecified) | active: 18.4 µM |  |
| COc1ccc(NS(=O)(=O)c2csc(C(=O)N3CCCC3)c2)cc1 | inconclusive [activator, full curve, poor fit] |  |
| CC(C)CCCNc1nc(N2CCOCC2)nc(N2CCOCC2)n1 | inactive |  |
| COC(=O)[C@H]1[C@H](C(=O)OC)[C@@H](C(=O)OC)N(c2ccc(OC)cc2)[C@@H]1C(=O)OC | inconclusive [activator, partial curve, poor fit] |  |
| O=C(NC(=S)N1CCN(Cc2ccccc2)CC1)c1ccccc1 | inconclusive [activator, partial curve, poor fit] |  |
